Source: ChEMBL document CHEMBL4888484, “Replenishing the malaria drug discovery pipeline: Screening and hit evaluation of the MMV Hit Generation Library 1 (HGL1) against asexual blood stage Plasmodium falciparum ,using a nano luciferase reporter read-out” (2022)
Hit rate of the full screen: of about 150,000 compounds, about 540 (0.36%) showed an effect of 50% or more. Some of the results follow.

The compounds below were run on Plasmodium falciparum (assay: Primary screen in NF54 nanoGlo assay, in single point, at 2uM, 72h; a lower Z score goes with more inhibition). Details: timepoint 72 hour.
Format: functional, Erythrocyte

| SMILES | % Inhibition [%] | Z score |
| --- | --- | --- |
| CCC1=C(c2ccc(C)cc2)S(=O)(=O)N=C1NCC(=O)NCc1ccc(OC)cc1 | -11 | 1.11 |
| CC[C@@H](COC)Nc1cccc(S(F)(F)(F)(F)F)c1 | 5 | -0.71 |
| CCn1ncc(-c2ccnc3c4c(C)cc(C(F)(F)F)nc4nn23)c1C | -10 | 1.14 |
| CCCCc1ccc(N2C(=O)[C@@H]3C(CC(N)=O)NC4(C(=O)Nc5c(Cl)cc(C)cc54)[C@@H]3C2=O)cc1 (some centres not stated) | -6 | 0.79 |
| CCCn1nc(C)c(CNC(=O)Nc2ccc(CN3CCOCC3)cc2)c1C | -3 | 0.48 |
| O=C1NCCCCCCN(C(=O)NCCc2ccccc2)[C@H]2CCCC[C@@H]12 | 3 | -0.41 |
| CN(Cc1noc(C2CCC2)n1)C[C@H]1CCCN1Cc1ccccc1 | -8 | 1.08 |
| CCc1cc(C(=O)N2CCC(c3nnc(Cn4ccnc4C)n3C)CC2)on1 | -8 | 1.47 |
| CC[C@@H](COC)NC(=O)CCC(=O)Nc1c(C)cc(C)cc1C | 19 | -2.39 |
| O=C(C1c2ccccc2Oc2ccccc21)N1CC[C@H](n2nccn2)C1 | 8 | -1.1 |
| CC1=C[C@@H](CNC(=O)COCC(=O)O)[C@H](C(C)C)C[C@H]1Cc1nc2ccccc2[nH]1 | 2 | -0.2 |
| Cn1cc(S(=O)(=O)NC[C@H]2CCN(c3ccccc3)C2)cn1 | -1 | 0.22 |
| CCc1cccc(C)c1NC(=O)N1CCC=C(F)C1 | -1 | 0.22 |
| CC(C)(C)OC(=O)NC/C(N)=N/OC(=O)c1cc(F)ccc1C(F)(F)F | -3 | 0.65 |
| COc1cc(NC(=O)[C@H]2CC[C@@H](c3ccccc3)O2)ncn1 | -16 | 2.95 |
| O=C1[C@@H](N2CC[S+]([O-])CC2)CCN1c1ccc(Cl)cc1Cl | -10 | 1.61 |
| COc1ccc(C(=O)N2CC(Oc3ccccc3-c3nc(C4CC4)no3)C2)cn1 | -11 | 1.28 |
| CC(C)(C)c1cc(CN2C[C@H](O)[C@@H](F)C2)n[nH]1 | -11 | 1.3 |
| COc1ccc(NC(=O)c2ccco2)cc1Nc1cc(C)nc2nc(-c3cccc(C)c3)nn12 | 8 | -1.19 |
| Cc1cccc2[nH]c([C@@H]3CCCN3CC(=O)Nc3ccn(C)n3)nc12 | 2 | -0.44 |
| Cc1ccc(-c2cc(CN(C(=O)c3ccco3)C3CC3)no2)cc1C | 0 | -0.04 |
| CC1CC(C(=O)N2CCC(C3CCOC3)C2)CC(=O)N1 (configuration not stated) | -6 | 0.58 |
| O=S(=O)(Nc1ccccc1-n1cncn1)c1ccc2c(c1)CCCC2 | -1 | 0.17 |
| CCCS(=O)(=O)N1CCCC[C@H]1C(=O)Nc1cnc2ccccc2c1 | -13 | 1.26 |
| Cc1onc(-c2ccccc2)c1C(=O)N1CC(C)OC(C)C1 (configuration not stated) | -19 | 2.49 |
| Cc1noc([C@H](C)NC(=O)c2cn(C)nc2-c2ccco2)n1 | 1 | -0.12 |

| SMILES | % Inhibition [%] | Z score |
| --- | --- | --- |
| Cc1ccc(Cn2nc(-c3ccc(C(N)=O)cc3)nc2[C@@H]2COCCO2)cc1 | -5 | 1.02 |
| CCn1nnc2ccc(-c3noc(Cc4ccc(F)cc4)n3)cc21 | -8 | 1.37 |
| C[C@@H](CNC(=O)C1CCC(Cn2c(=O)[nH]c3ccsc3c2=O)CC1)c1ccccc1 (some centres not stated) | -15 | 1.29 |
| CC(C)C(C(=O)NCC1COCCO1)n1cnc2cc(F)c(F)cc21 (configuration not stated) | 11 | -1.6 |
| CC(CCc1cccc(F)c1)NC(=O)N1CCCC(CC(N)=O)C1 (configuration not stated) | 10 | -1.23 |
| CCN1CCN(C[C@@H]2CN(Cc3[nH]c4ccc(C)cc4c3C)C[C@@H]2CO)CC1 | 5 | -0.76 |
| Cc1ccc(C)c(CC(=O)N2C[C@@H]3CC[C@H]2CN(S(=O)(=O)N(C)C)C3)c1 | -6 | 0.89 |
| CCn1c(C)c(-c2nc(C3CC3)no2)c(S(=O)(=O)Nc2ccc(OC)cc2)c1C | -9 | 1.85 |
| Cn1cnnc1C[C@H]1CCN(S(=O)(=O)Cc2ccccc2)C1 | -3 | 0.42 |
| CCn1ccc(C(=O)NC2CCN(C3=NS(=O)(=O)C(c4ccccc4)=C3C)CC2)n1 | 1 | -0.11 |
| COc1ccc(C(=O)NCc2cccc(Cl)c2)cc1CN1CC(=O)N2CCC[C@H]2C1=O | -13 | 2.37 |
| CCn1cc(CNC[C@H](C)c2nc3ccccc3o2)cn1 | -7 | 0.77 |
| C1CCN(CCN2CCOC[C@@]23CCOC3)CC1 | 9 | -1.7 |
| CCC(CC)(C(=O)O)C(=O)N1CCCC(C(C)N)C1 (configuration not stated) | -5 | 0.83 |
| C[n+]1cc(-c2ccc3ccccc3n2)c(C#N)c2ccccc21 | 34 | -4.97 |
| CC(C)N(C)Cc1nc(C2CN3CCCCC3CO2)no1 (configuration not stated) | -14 | 1.57 |
| COc1cccc(NC(=O)[C@@H](C#N)C(=O)c2ccc(C)o2)c1 | 6 | -0.8 |
| COc1ccc(N2C(=O)N[C@@H](CC(=O)NC(c3ccc(OC)c(OC)c3)C(C)C)C2=O)cc1 (some centres not stated) | 7 | -1.07 |
| CC(C)C(=O)N(Cc1ccc(F)cc1)Cc1cc(-c2ccccc2)on1 | -10 | 1.46 |
| CC(C)Oc1nc(-c2cccc(C(F)(F)F)c2)n(-c2ccc(NC(=O)c3ccc4ccccc4c3)cc2)n1 | -14 | 2.33 |
| CCc1ccccc1N(C(C)=O)c1nc(CN2C(=O)c3ccccc3CS2(=O)=O)cs1 | -1 | 0.15 |
| O[C@H]1CN(C/C=C/c2ccc(F)cc2)C[C@@H]1N1CCCC1 | -15 | 1.46 |
| Cc1ccc(S(=O)(=O)N2CC3(C2)CC2(CCC2)C3)cc1 | -8 | 1.43 |
| Cc1cccc(F)c1S(=O)(=O)N1C[C@H](c2cn(C)cn2)[C@@H](N)C1 | 3 | -0.59 |
| CCN(C(=O)NCc1ccoc1C)[C@@H](C)CS(C)(=O)=O | 1 | -0.16 |
